Test results reported in PubChem BioAssay AID652104 (National Center for Advancing Translational Sciences (NCATS), 2013).
Out of some 410,000 compounds screened, about 7,200 (1.8%) were called active. The shares of active, inactive and inconclusive entries below differ from those in the screen. The call rests on the fitted dose curve; in most records, active means well fitted activation curve with a large enough effect; inconclusive means small, poorly fitted or top-dose-only effect, or another doubt; inactive means no such curve, though single readings can be large or run the other way. No potency is given beside an inconclusive call; the fits are too rough.

Test: qHTS of TDP-43 Inhibitors; further: nearly all actives have a fitted effect of over 50% in size
Settings: TDP-43 expressing yeast growth rescue, BacTiter-Glo, 24 h; series mostly up to 46.1 µM
Outline: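 Cell-based yeast growth screen: TDP-43 expression induced in galactose, inoculum OD600=0.02 after raffinose pregrowth to mid-log. Read-out BacTiter-Glo luminescence at 24 hr, 30 deg C; inhibition of toxicity seen as signal increase.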
Potency means the concentration at half of the fitted maximal effect; tags describe the fitted curve by direction and shape.

Question: For `CCOc1cnn(-c2ccccc2)c(=O)c1Cl`, which Potency is on record?
Answer: inconclusive [activator, single point]

Question: With `CCN(CC(=O)Nc1ccc(OC)cc1)C(=O)c1cc(S(=O)(=O)N2CCOCC2)ccc1N1CCCC1` as the compound, how does the Potency read?
Answer: inconclusive [activator, partial curve]

Question: For `C=CCc1c(C)nc(SCc2ccccc2)[nH]c1=O`, which Potency is on record?
Answer: inconclusive [activator, partial curve]

Question: With `Cc1ccc(CN(Cc2ccco2)c2cnc(S(C)(=O)=O)nc2C(=O)Nc2ccccc2Br)o1` as the compound, how does the Potency read?
Answer: inactive

Question: Which Potency does the source give for `CCCCC(CC)CN=C(N)NC(N)=NCCCCCCN=C(N)NC(N)=NCC(CC)CCCC` (stereo unspecified) here?
Answer: inactive

Question: With `c1ccc(C2CC(c3cccs3)=NN2c2ccccc2)cc1` (stereo unspecified) as the compound, how does the Potency read?
Answer: inactive

Question: For `Cc1ccc(/C=N\NC(=O)C2COc3cc4ccccc4cc3O2)o1` (stereo unspecified), which Potency is on record?
Answer: inconclusive [activator, partial curve]

Question: Which Potency does the source give for `COc1ccc2oc(C(=O)N3CCN(C(=O)c4ccco4)CC3)c(C)c2c1` here?
Answer: inconclusive [activator, partial curve]

Question: For `COc1ccc2nc(SCc3ccccc3)nc(C)c2c1`, which Potency is on record?
Answer: inconclusive [activator, single point]

Question: Which Potency does the source give for `CCCCc1ccc(NC(=O)C2(C)Cc3ccccc3C(=O)O2)cc1` (stereo unspecified) here?
Answer: inactive

Question: Which Potency does the source give for `O=C(CSc1nc2cc(S(=O)(=O)N3CCOCC3)ccc2o1)NC1CCCc2ccccc21` (stereo unspecified) here?
Answer: inconclusive [activator, single point]

Question: Which Potency does the source give for `O=C(Nc1ccc(N2CCN(C(=O)c3ccccc3)CC2)cc1)c1ccc(Br)o1` here?
Answer: inconclusive [activator, partial curve]

Question: With `CCc1ccc(-n2c(SCc3cccc(F)c3)nc3[nH]ncc3c2=O)cc1` as the compound, how does the Potency read?
Answer: inconclusive [activator, single point]

Question: Which Potency does the source give for `S=c1[nH]c2ccccc2c2ccccc12` here?
Answer: inconclusive [activator, full curve]

Question: Which Potency does the source give for `O=c1n(Cc2ccccc2Cl)nc2n1-c1ccccc1SC2` here?
Answer: inconclusive [activator, partial curve]

Question: For `Cc1ccc(S(=O)(=O)NCC23C=CC(O2)C2C(=O)N(c4ccccc4)C(=O)C23)cc1` (stereo unspecified), which Potency is on record?
Answer: inconclusive [activator, single point]

Question: Which Potency does the source give for `CN(CC(=O)Nc1ccc(Cl)c(Cl)c1)C(=O)C1CCC1` here?
Answer: inconclusive [activator, partial curve]

Question: For `COc1ccc(CCNC(=O)C2CCC(C(C)(C)C)CC2)cc1OC` (stereo unspecified), which Potency is on record?
Answer: inconclusive [activator, single point]

Question: Which Potency does the source give for `O=C(CSc1ccc(F)cc1)NC(=O)NCc1ccccc1` here?
Answer: inconclusive [activator, partial curve]

Question: Which Potency does the source give for `O=C(c1cnsn1)N1CCCC(Nc2ccc(F)c(F)c2)C1` (stereo unspecified) here?
Answer: inconclusive [activator, single point]

Question: Which Potency does the source give for `CCOC(=O)c1c(CN2CCOCC2)n(-c2ccccc2)c2cc(Br)c(O)cc12` here?
Answer: inactive

Question: For `CCc1ccc(-n2c(=O)c3cccnc3n2CC(=O)Nc2ccccc2C(F)(F)F)cc1`, which Potency is on record?
Answer: inactive

Question: For `O=C(NC1CCCCC1)c1ccc2ccccc2c1O`, which Potency is on record?
Answer: inconclusive [activator, single point]

Question: Which Potency does the source give for `COc1ccc(-c2ccc(CCC(=O)O)n2CC(=O)Nc2cccc(C(F)(F)F)c2)cc1` here?
Answer: inactive

Question: For `CCCC(=O)c1ccc(OC(=O)c2c(-c3ccccc3Cl)noc2C)cc1`, which Potency is on record?
Answer: inactive

Question: Which Potency does the source give for `Cc1nnc(NC(=O)C(=O)c2cc(C)n(-c3ccc(C)c(C)c3)c2C)s1` here?
Answer: inactive

Question: With `O=S(=O)(NC1CCCCCC1)c1ccc(Br)s1` as the compound, how does the Potency read?
Answer: inconclusive [activator, single point]

Question: For `COC(=O)c1ccc(-n2c(C)cc(C(=O)CCl)c2C)cc1`, which Potency is on record?
Answer: inconclusive [activator, single point]

Question: Which Potency does the source give for `Cc1cc(Cl)ccc1C1=CC(=O)C[C@H](c2ccc(F)cc2)C1` here?
Answer: active: 14.1 µM

Question: For `Cc1ccc2nc(NCCO)nc(-c3ccccc3)c2c1`, which Potency is on record?
Answer: inconclusive [activator, partial curve]

Question: With `Cc1nn(-c2ccccc2)c(OC(=O)C(C)(C)C)c1Sc1ccccc1` as the compound, how does the Potency read?
Answer: inconclusive [activator, single point]

Question: For `Cc1ccc2c(c1)C(=O)C(=O)N2Cc1ccc(C(F)(F)F)cc1`, which Potency is on record?
Answer: inconclusive [activator, single point]

Question: For `Cc1ccc(OCC(=O)NNC(=O)c2cc(C)[nH]n2)cc1`, which Potency is on record?
Answer: inactive

Question: Which Potency does the source give for `Clc1ccc(Br)cc1-c1nc(-c2ccncc2)no1` here?
Answer: inconclusive [activator, partial curve]

Question: Which Potency does the source give for `CCCc1cc(C(=O)Nc2c(C)nn(Cc3ccc(Cl)c(Cl)c3)c2C)no1` here?
Answer: inconclusive [activator, full curve]

Question: With `COc1ccccc1NS(=O)(=O)c1cc(NC(=O)/C=C/c2cccs2)ccc1N1CCOCC1` as the compound, how does the Potency read?
Answer: inconclusive [activator, single point]

Question: With `CCN(CC)C(=O)COc1c(-c2ccco2)oc2ccccc2c1=O` as the compound, how does the Potency read?
Answer: inconclusive [activator, single point]

Question: With `CN(CC1COc2ccccc2O1)C(=S)Nc1ccccc1F` (stereo unspecified) as the compound, how does the Potency read?
Answer: inconclusive [activator, partial curve]

Question: For `CCCCN1CC(C)(C)[C@H](CC(=O)Nc2ccc(Br)cc2)C1=O`, which Potency is on record?
Answer: inconclusive [activator, partial curve]

Question: Which Potency does the source give for `COc1cc(-c2cc(OC)c3c(C)oc(C)c3c(=O)c2)ccc1OC(=O)c1ccccc1F` here?
Answer: inconclusive [activator, partial curve]

Question: For `COc1ccc(S(=O)(=O)N2CCCC2C(=O)Nc2nnc(-c3cccnc3)s2)cc1` (stereo unspecified), which Potency is on record?
Answer: inactive

Question: With `Cc1ccc2nsnc2c1S(=O)(=O)N1CCCC1` as the compound, how does the Potency read?
Answer: inconclusive [activator, single point]

Question: For `O=C(CSCc1ccc(F)cc1)Nc1nc2c(s1)CCCC2`, which Potency is on record?
Answer: active: 14.1 µM

Question: Which Potency does the source give for `COc1ccc(-c2oc3cccnc3c2C#CCO)cc1` here?
Answer: inconclusive [activator, single point]

Question: For `CC(C(=O)O/N=C(\N)c1ccccn1)c1ccc([N+](=O)[O-])cc1` (stereo unspecified), which Potency is on record?
Answer: inconclusive [activator, single point]

Question: For `COc1ccc2[nH]c(C(=O)O)c(CCC(=O)O)c2c1`, which Potency is on record?
Answer: inactive

Question: Which Potency does the source give for `COc1ccc(-c2cn[nH]c2-c2ccc(OC)cc2O)cc1` here?
Answer: active: 25.1 µM

Question: Which Potency does the source give for `CCCc1nc(SCC(=O)Nc2nc3c(s2)CCCC3)c2ccccc2n1` here?
Answer: inactive

Question: For `CCCn1c2ccccc2c2cnn(CC(=O)NCCc3ccc(C)cc3)c(=O)c21`, which Potency is on record?
Answer: inactive

Question: For `Cc1nnc2c3ccccc3nc(Nc3cccc(O)c3)n12`, which Potency is on record?
Answer: active: 35.5 µM

Question: Which Potency does the source give for `COCCOc1ccc(C(F)(F)F)cc1NC(=O)COC(=O)c1cc([N+](=O)[O-])ccc1N1CCOCC1` here?
Answer: inconclusive [activator, partial curve]

Question: With `COc1ccccc1NC(=O)CSc1nc(N)c(C#N)cc1C#N` as the compound, how does the Potency read?
Answer: inactive

Question: For `O=C(COc1ccc(C(=O)c2ccccc2)cc1)NCc1ccc(F)cc1`, which Potency is on record?
Answer: inconclusive [activator, partial curve]

Question: Which Potency does the source give for `Cc1ccc(-c2cn(-c3ccc(Cl)cc3)c(S(=O)(=O)CC(=O)Nc3ccccc3)n2)cc1` here?
Answer: inconclusive [activator, partial curve]

Question: With `CCO/C=C1/C(=O)N(Cc2ccccc2)C(=O)c2ccccc21` as the compound, how does the Potency read?
Answer: inconclusive [activator, single point]

Question: With `CNc1cc([N+](=O)[O-])ccc1OCc1ccccc1` as the compound, how does the Potency read?
Answer: inconclusive [activator, partial curve]

Question: Which Potency does the source give for `COc1ccccc1NC(=S)c1ccccc1` here?
Answer: inconclusive [activator, single point]

Question: Which Potency does the source give for `O=c1c2sc3ccccc3c2n(Cc2cccc(C(F)(F)F)c2)c(=O)n1Cc1ccc(F)cc1` here?
Answer: inactive

Question: With `OCc1cn(-c2ccccc2)nc1-c1cccnc1` as the compound, how does the Potency read?
Answer: inactive

Question: Which Potency does the source give for `O=C(/C=C/[C@H]1O[C@@H](n2cnc3c(NC(=O)c4ccccc4)ncnc32)[C@H](O)[C@@H]1O)NCC1CCCCC1` here?
Answer: inconclusive [activator, full curve, poor fit]

Question: For `Cc1cc(C)cc(-n2ccn(Cc3ccc(F)cc3)c(=O)c2=O)c1`, which Potency is on record?
Answer: inactive

Question: For `CCCCC[C@@H](C)N1C[C@@H](COCc2ccccc2)Oc2cc(N3CCC[C@H]3COC)ccc2S1(=O)=O`, which Potency is on record?
Answer: inactive

Question: For `Fc1ccc(Br)cc1C1C=C(c2ccc(Br)cc2)Nc2nnnn21` (stereo unspecified), which Potency is on record?
Answer: inconclusive [activator, partial curve]

Question: For `C#CCOc1nc(Nc2cccc([N+](=O)[O-])c2)nc(OCC#C)n1`, which Potency is on record?
Answer: inconclusive [activator, single point]

Question: Which Potency does the source give for `OC(c1ccc(F)cc1)c1nc(-c2ccccc2)cs1` (stereo unspecified) here?
Answer: inconclusive [activator, partial curve]

Question: For `COc1ccc2c(c1)OC[C@H]1[C@H]2N2C(=O)c3cc(C)ccc3NC(=O)[C@@]2(C)[C@H]1c1ccccc1`, which Potency is on record?
Answer: inconclusive [activator, single point]

Question: For `O=C(c1ccc(COc2ccccc2Cl)o1)N1CCOCC1`, which Potency is on record?
Answer: inconclusive [activator, single point]

Question: Which Potency does the source give for `CCn1c(SCC(=O)NCc2ccc3c(c2)OCO3)nnc1-c1cccs1` here?
Answer: inactive

Question: With `CCOC(=O)c1c(-c2ccc(-c3ccccc3)cc2)csc1NC(=O)CCN1CCOCC1` as the compound, how does the Potency read?
Answer: active: 14.1 µM

Question: With `CCc1cccc(OCC(=O)N(C)CC(=O)Nc2cccc(F)c2)c1` as the compound, how does the Potency read?
Answer: inconclusive [activator, single point]

Question: With `O=C(N/N=C/c1ccc(N2CCOCC2)cc1)c1ccncc1` as the compound, how does the Potency read?
Answer: inactive
